# This sample is rich in variants without activity.
# B1: TPR 5TU (parent)
# chain: GGAUCUUCUCGAUCUAACAAAAAAGACAAAUCUGCCACAAAGCUUGAGAGCAUCUUCGGAUGCAGAGGCGGCAGCCUUCGGUGGCGCGAUAGCGCCAACGUUCUCAACUAUGACACGCAAAACGCGUGCUCCGUUGAAUGGAGUUUAUCAUG
# Variants of: B1
# Test: polymerase ribozyme fitness, log enrichment relative to wild type (log ratio); higher = more active; in vitro selection for triplet polymerase activity
# Outline: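 Streptavidin-bead capture of gel-excised extended constructs, followed by RT-PCR, closed a single triplicate in vitro selection round. That round began by annealing PCR-built, transcribed mutant libraries of each subunit of a heterodimeric triplet polymerase ribozyme with a biotinylated primer, the partner subunit and triplets, then incubating them frozen at −7 °C. After Illumina sequencing of inputs and outputs, genotypes needed ≥10 input reads and ≥1 read per output. Fitness is the base-2 logarithm of genotype enrichment over wild-type enrichment, using inverse-variance-weighted replicate averages.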
row,Variant,polymerase ribozyme fitness (log ratio)
1,G48C A89U C93G A110U C125U,≤ -4.2
2,G48C A91U G143C,≤ -4.2
3,G48C A110U C118G A119C,≤ -4.2
4,G48C C51A G83A,≤ -4.2
5,G48C C51G C96A,≤ -4.2
6,G48C C51U U151G,≤ -4.2
7,G48C C54U A60C U102G U111G,≤ -4.2
8,G48C C54U G59U G68U G100A A147U,≤ -4.2
9,G48C C57U G100C A121G A122G,≤ -4.2
10,G48C C63A G83A G133C,-3.98
11,G48C C63G G92A C96G C105G C108U,≤ -4.2
12,G48C C72G G84A U90A G152A,≤ -4.2
13,G48C C75U U77C C93G A122U A150C,≤ -4.2
14,G48C C76A C93U G94A A138C G140A U146G,≤ -4.2
15,G48C C79A A142U,≤ -4.2
16,G48C C79A G86U C96U G124A,≤ -4.2
17,G48C C85A C118A,-1.39
18,G48C C85A G141C,≤ -4.2
19,G48C C85G A107C U111A U135G,≤ -4.2
20,G48C C87G,≤ -4.2
21,G48C C87U A98G C103A U111C G124A,≤ -4.2

row,Variant,polymerase ribozyme fitness (log ratio)
1,G48C C96G C103G C105G A106G,-3.96
2,G48C C99U C105G,≤ -4.2
3,G48C C103G G133U,≤ -4.2
4,G48C C105U C118U G143U,≤ -4.2
5,G48C G50C G58A U61A G68C,≤ -4.2
6,G48C G50C G86U G88A U90A G136U,≤ -4.2
7,G48C G58C U82C C95G G100C,≤ -4.2
8,G48C G58U C93A C99A C116A,≤ -4.2
9,G48C G59C G92U C99G A106U,≤ -4.2
10,G48C G62C C108G A137U U146A,≤ -4.2
11,G48C G68A A113U U148C,≤ -4.2
12,G48C G71U G86A C96A C108U,≤ -4.2
13,G48C G83U,-1.41
14,G48C G84U U139A,≤ -4.2
15,G48C U53C G136U,-3.16
16,G48C U53G G88U U101A,≤ -4.2
17,G48C U55A C93G,-3.87
18,G48C U55C A66G C85U U101A,≤ -4.2
19,G48C U61A U77A C125U U144A,≤ -4.2
20,G48C U61A U78G C103A A110C A113C A147U,≤ -4.2
21,G48C U77A C85A G100A C103G C125A,≤ -4.2

row,Variant,polymerase ribozyme fitness (log ratio)
1,G48C U77A C87G,≤ -4.2
2,G48C U77G U144A,≤ -4.2
3,G48U A52G C76A G84U G88A C123A G143C,≤ -4.2
4,G48U A91G C96U C103U,≤ -4.2
5,G48U A107C,≤ -4.2
6,G48U C54A C87U A106C U148C,≤ -4.2
7,G48U C54A C93G,≤ -4.2
8,G48U C54U U77G C85A G86A C114U,≤ -4.2
9,G48U C57U G84C C93U A150U G152A,≤ -4.2
10,G48U C57U G117A G124A G141C,≤ -4.2
11,G48U C75G A91C C96A,≤ -4.2
12,G48U C79A G88A A107G A113C G117A,≤ -4.2
13,G48U C87A C96G A121G G141C A147G,≤ -4.2
14,G48U C87G U104G U135A,≤ -4.2
15,G48U C95U C103G C132A U148G,≤ -4.2
16,G48U C99G U101G C108G G124U C125U,≤ -4.2
17,G48U G50C G84U C96U,≤ -4.2
18,G48U G58C G81C C93A C129U,≤ -4.2
19,G48U G59U,0.371
20,G48U G83C C87U,≤ -4.2
21,G48U G86U,-1.58

row,Variant,polymerase ribozyme fitness (log ratio)
1,G48U G94A C95A C96G U134G,≤ -4.2
2,G48U U53A G67C G71U C85U A91C C125U,≤ -4.2
3,G48U U55G C118G C131U A137C U145A,≤ -4.2
4,G48U U56A U109G C116G C131U A142C,≤ -4.2
5,G48U U61A G100A C103G C116U G128U U130G,≤ -4.2
6,G48U U77C C79G G143U,≤ -4.2
7,G48U U78A C93A U139G,≤ -4.2
8,G48U U146G,-1.42
9,A49C A52C G65U C69G C93U,≤ -4.2
10,A49C A52G,≤ -4.2
11,A49C A52G A73C,≤ -4.2
12,A49C A52G G83C A119G A121U,≤ -4.2
13,A49C A52G U53A A91G C93A U127G A142C,≤ -4.2
14,A49C A52U,≤ -4.2
15,A49C A52U A60G G94A A97G,-3.63
16,A49C A52U U53A A60C C63U C87A C93A C99U A137U A138C,≤ -4.2
17,A49C A60G G67U C85U C93G A97G,≤ -4.2
18,A49C A64C A97G G141A,≤ -4.2
19,A49C A64U G67U G68A G71A,≤ -4.2
20,A49C A66C,≤ -4.2
